Experimental data published in PubChem BioAssay AID1159614 (National Center for Advancing Translational Sciences (NCATS), 2016).
About 65 (0.1%) of roughly 45,000 compounds were called active. Calls follow the shape of the dose curve; as a rule, active = well fitted activation curve with a large enough effect; inconclusive = small, poorly fitted or top-dose-only effect; inactive = no such curve, though single readings can be large or run the other way. The list shows a part of the results.

biological target: Galactocerebrosidase (Homo sapiens) (UniProt P54803); test: A Novel Cell-Based Assay to Identify Small Molecules for B -Galactocerebrosidase; settings: 145M-Twi-hGALC-G270D cells (Twitcher mouse brain line with human GALC G270D), HMU-beta-Gal fluorescence, 48 h; series mostly up to 57.5 µM; activation: at the top concentration; also: 0% is about no effect; nearly all actives have a fitted effect of over 65% in size
Sequence of UniProt P54803 (P54803 whole entry, looked up): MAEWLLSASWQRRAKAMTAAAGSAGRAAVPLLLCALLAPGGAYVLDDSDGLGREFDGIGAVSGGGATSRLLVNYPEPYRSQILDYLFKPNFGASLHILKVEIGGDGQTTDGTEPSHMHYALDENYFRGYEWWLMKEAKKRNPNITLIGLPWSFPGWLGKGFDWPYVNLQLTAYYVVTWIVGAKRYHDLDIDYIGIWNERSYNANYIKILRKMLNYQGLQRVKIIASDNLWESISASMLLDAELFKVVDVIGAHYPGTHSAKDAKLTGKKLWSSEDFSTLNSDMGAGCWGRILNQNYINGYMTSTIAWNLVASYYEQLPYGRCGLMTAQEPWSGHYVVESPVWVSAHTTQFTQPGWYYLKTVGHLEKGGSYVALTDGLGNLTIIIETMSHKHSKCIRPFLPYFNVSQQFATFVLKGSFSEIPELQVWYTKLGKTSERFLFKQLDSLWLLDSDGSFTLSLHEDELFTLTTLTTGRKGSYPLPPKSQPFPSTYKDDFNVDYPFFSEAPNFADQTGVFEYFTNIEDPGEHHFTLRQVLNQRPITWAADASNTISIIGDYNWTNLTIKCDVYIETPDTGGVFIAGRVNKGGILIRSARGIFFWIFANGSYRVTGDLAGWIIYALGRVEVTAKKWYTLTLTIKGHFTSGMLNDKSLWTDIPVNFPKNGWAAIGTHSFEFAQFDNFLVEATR
Text: Lysosomal storage diseases (LSDs) are caused by genetic mutations in genes encoding proteins important for normal lysosomal function. Globoid cell leukodystrophy (GLD), mostly known as Krabbe disease, is a prototype of the neurological LSDs caused by deficiency of beta-galactocerebrosidase (GALC). In brain specimens of GLD patients, psychosine levels are substantially elevated. At elevated concentrations, psychosine becomes cytotoxic to neuronal cells, particularly to oligodendrocytes (OLG), neural cells responsible for myelin formation. Therefore, the biochemical disturbances in GLD are manifested by different degrees of brain demyelination resulting in a broad spectrum of neurological manifestations. Most of the FDA-approved therapies are based on enzyme replacement therapeutic (ERT) agents, which treat non-neurological symptoms of Gaucher disease, Fabry disease, few mucopolysaccharidoses and Pompe disease. Unfortunately, in GLD, a primarily neurological LSD, ERT agents, as large molecular weight molecules unable to cross the blood-brain barrier, which makes this an inefficacious therapeutic approach. In GLD, increasing the residual GALC activity just above the critical threshold (~10% of wild type enzymatic activity), the cytotoxic levels of psychosine will be reduced, avoiding the OLGs apoptosis and the subsequent demyelination process. This will translate in disease stabilization and amelioration of GLD patient symptoms.
A cell-based assay in 1,536-well plate format was developed to implement a quantitative high-throughput screening (qHTS) assay using GLD-disease relevant cells to identify small molecules that produce enhancements of the residual enzymatic activity levels of mutants GALC found and prevalent in GLD patients. Compounds that are active may therefore have some therapeutic application for GLD. After the treatment of live cells for a determined period, using a fluorescent GALC specific substrate, the mutant residual GALC activity is measured. This cell-based qTHS assay was used to screen part of the MLPCN library for small molecule able to increase the mutant GALC enzymatic activity. In this assay, increased fluorescent signal corresponds to enhanced levels of mutant GALC residual enzymatic activity. Activation is the desired outcome for this assay.
NIH Chemical Genomics Center [NCGC]
NIH Molecular Libraries Probe Centers Network [MLPCN]
Assay Submitter (PI): Gustavo Maegawa MD,PhD, University of Florida, Gainesville, FL
2)#Two cell lines were established for the assay: 145M-Twi-hGALC-G270D (brain-derived Twitcher cell line stably expressing human GALC-G270D) and 145M-Twi-hGALC-WT (same 145M-Twi stably expressing human GALC wild type). The Twitcher is the murine C57B/6 model for GLD with naturally occurring homozygous nonsense GALC mutation. The 145M-Twi cell line was established at Maegawa lab (Ribbens J et al 2014).
a.#Media: DMEM/F12 (1:1) with 10% fetal bovine-serum (FBS) with penicillin/streptomycin (PS-1X - 100 I.U./mL of penicillin+100 ug/mL of streptomycin).
b.#The 6-Hexadecanoylamino-4-methylumbelliferyl-b-D-galactoside (HMU-B-gal) substrate was prepared as per Wiederschain et al 1992. Using 20-mL borosilicate tubes, 2.20 mg of HMU-b-Gal was added in each tube to prepare substrate-film with a final air-nitrogen stream evaporation to remove all diluent solvents.
c.#The HMUb-Gal substrate buffer consists of 0.2 M Na2HPO4 (sodium phosphate dibasic)/ 0.1 M Citric Acid with the pH adjusted to 5.2 using HCl. Sodium Azide at 0.02% and Sodium Taurocholate (NaTC) at 1 mg/mL were added to this substrate buffer.
d.#The HMU-b-Gal stopping buffer consist of 0.5 M NaHCO3 (sodium bicarbonate) /0.5 M Na2CO3 (sodium carbonate). […] Triton X-100 at 0.25% was added.
4)#Preparation of HMU-b-Gal substrate tubes
Adding 18.6 mL of the HMUb-Gal substrate buffer to each 20-mL tube (2.20 mg of HMU-b-Gal) will reach a concentration of 0.2 mM. Vortex well the tube until the solution is fully homogenized (clear cloudy solution). […]

Row | Structure (SMILES) | activation
1 | O=C(NC1CCCC1)c1ccc2c(c1)N(Cc1c(F)cccc1Cl)C(=O)c1ccccc1S2 | inactive: -0.984%
2 | Cc1nn2c(=O)cc(COC(=O)c3ccccc3NC(=O)C3CCCCC3)nc2s1 | inactive: -10.2%
3 | CCOc1ccc(N(CC)S(=O)(=O)N2CCCC(C(=O)NCc3ccccc3OCC)C2)cc1 (configuration not stated) | inactive: -19.8%
4 | COc1cc(-c2cc3n(C)c(C)c(CCC(=O)NC4CCC(C)CC4)c(=O)n3n2)cc(OC)c1OC (configuration not stated) | inactive: -7.02%
5 | O=C(NCCc1csc(-c2cccc(F)c2)n1)c1ccco1 | inactive: -3.95%
6 | NS(=O)(=O)c1ccc(CCNC(=O)Cn2c(=O)c3cccn3c3ccc(F)cc32)cc1 | inactive: -6.93%
7 | COc1ccc2c(c1)CC(C(=O)Nc1c(C)cc(C)cc1C)CO2 (configuration not stated) | inactive: -5.75%
8 | Cc1nn(CC(=O)NC(C)c2ccccc2)c(=O)c2cc3occc3n12 (configuration not stated) | inactive: -5.93%
9 | COc1cccc2c1Oc1ncccc1N(C(=O)CCC(=O)NCc1ccc(OC(C)C)cc1)C2 | inactive: -16.2%
10 | CCOC(=O)C1=C(CN2CCN(c3ccc(Cl)cc3)CC2)NC(=O)NC1c1ccc(F)cc1 (configuration not stated) | inactive: -7.91%
11 | O=C(CSc1nc2c([nH]c3ccccc32)c(=O)n1-c1ccccc1)Nc1ccccc1C(F)(F)F | inactive: -1.41%
12 | NC(=O)COc1ccc(-c2noc(COc3ccc(Cl)cc3)n2)cc1 | inactive: -4.83%
13 | COc1ccc(OC)c(NC(=O)CCCOc2cc(=O)n(C)c3ccccc23)c1 | inactive: -5.61%
14 | COc1cccc(NC(=O)CSC2=Nc3ccccc3C3=NC(CCC(=O)NC4CCCCC4)C(=O)N23)c1 (configuration not stated) | inactive: -20.5%
15 | COc1cc(CNCCCSc2nnnn2C)cc(Br)c1OC | inactive: -24%
16 | Cc1[nH]c2ccccc2c1C1(O)C(=O)Nc2ccc(Cl)cc21 (configuration not stated) | inactive: -12.3%
17 | COc1cccc(C(=O)NCC(c2ccc3c(c2)OCO3)N2CCN(C)CC2)c1 (configuration not stated) | inactive: -18.5%
18 | CCc1ccccc1-n1nnc(-c2nc(-c3ccccc3F)no2)c1C | inactive: -36.4%
19 | Cc1ccc(-n2c3c(c(=O)[nH]c2=O)C(NC(=O)C(C)(C)C)(C(F)(F)F)C(=O)N3)cc1 (configuration not stated) | inactive: -5.74%
20 | O=C(Nc1cccc(F)c1)C1CCN(c2nc3ccccc3nc2C(F)(F)F)CC1 | inactive: -17%
21 | O=C(CCSCc1cccc(F)c1)NCCc1ccccc1 | inactive: 2.96%

Row | Structure (SMILES) | activation
22 | Cc1ccc(N2CC(C(=O)NCCS(=O)(=O)N3CCN(c4ccc(F)cc4)CC3)CC2=O)cc1 (configuration not stated) | inactive: -17.7%
23 | CCc1ccccc1NC(=O)Cn1cc(C(=O)c2ccncc2)c(=O)c2cc(C)ccc21 | inactive: -18.4%
24 | O=C(CCSCCc1ccccn1)Nc1ccccc1C(F)(F)F | inactive: -4.23%
25 | O=C(COCc1cc(-c2ccc(F)cc2)on1)Nc1cc(Cl)cc(Cl)c1 | inactive: -16.3%
26 | Cc1ccc(-n2ncc3c(NCCc4ccccc4)ncnc32)cc1Cl | inactive: -12.9%
27 | COc1ccc(CCNC(=O)c2cc(-c3ccc(C)cc3)nc3n[nH]c(-c4ccc(F)cc4)c23)cc1OC | inactive: -11.5%
28 | COc1cccc(Cn2c(=O)n(-c3cc(C)cc(C)c3)c(=O)c3oc4ccccc4c32)c1 | inactive: 10.2%
29 | Cc1c(Cl)cccc1-c1ccc(C(=O)Nc2ccc3oc(-c4cccnc4)nc3c2)o1 | inactive: -27.9%
30 | CCC(CC)C(=O)Nc1cccc(-c2cn3cccnc3n2)c1 | inactive: 2.24%
31 | Cc1ccc2c(=O)c(C(=O)c3cccc(Cl)c3)cn(CC(=O)NCc3ccccc3)c2n1 | inactive: -15.1%
32 | COc1cc(OC)c(NC(=O)Cn2c(=O)nc(-c3ccccc3)c3ccccc32)cc1Cl | inactive: -2.73%
33 | COCCCNc1oc(-c2ccc(COc3ccccc3C)o2)nc1C#N | inactive: -12%
34 | CC1=C(C(=O)Nc2cccc(F)c2)C2(CCCCCC2)OC1=O | inactive: -0.28%
35 | Cc1ccc(N2CCN(S(=O)(=O)c3nnc(NC(=O)c4cccc(F)c4)s3)CC2)cc1 | inactive: -10%
36 | CCc1ccc(C2=CC(c3cccc(OC)c3OC)n3c(nc4ccccc43)N2)cc1 (configuration not stated) | inactive: -23.4%
37 | CCOc1cc(CNC(=O)c2cc(-c3ccc(Cl)s3)nc3ccccc23)ccc1OC | inactive: -1.91%
38 | COc1ccc(CCNC(=O)Cn2c(=O)cc(C(F)(F)F)c3c(C)nn(C)c32)c(OC)c1 | inactive: -12.4%
39 | CCCN1CCN(CCCNC(=O)c2cc3c(=O)[nH]c4ccccc4c3s2)CC1 | inactive: -0.803%
40 | COc1ccc(NC(=O)CNC(=O)Cn2ccc3ccccc3c2=O)c(OC)c1 | inactive: -7.94%
41 | O=C(Cn1cccc1C(=O)c1ccccc1)NCc1ccc(Cl)cc1 | inactive: 1.11%
42 | Cc1cc(C)c2c(NC(=O)c3ccccc3Cl)c(C(=O)Nc3ccc(C)c(C)c3)sc2n1 | inactive: -5.71%

Row | Structure (SMILES) | activation
43 | CCc1ccccc1NC(=O)c1nnn(CC(=O)Nc2c(C)cc(C)cc2C)c1N | inactive: -12.6%
44 | CN(C(=O)CSc1nc2ccc(NC(=O)c3ccco3)cc2s1)c1ccccc1 | inactive: -32.3%
45 | Cc1ccc(CNC(=O)c2cnc(N3CCCC3)nc2C)cc1 | inactive: -9.44%
46 | CCC1=Nc2cc(C(=O)NC3CCCC3)ccc2Sc2ccc(Cl)cc21 | inactive: -13.3%
47 | COc1cc(CNCCSc2nnnn2C)ccc1OCc1ccccc1 | inactive: -13.3%
48 | COc1ccc(N2CCN(C(=O)c3c(C)oc4ncn(CC(C)C)c(=O)c34)CC2)cc1 | inactive: -9%
49 | COC(=O)c1ccc(NC(=O)C(C)N2Cc3ccccc3C2=O)cc1 (configuration not stated) | inactive: -10.5%
50 | CCOC(=O)c1cc(S(=O)(=O)N2CCN(c3cccc(C)c3)C(C)C2)[nH]n1 (configuration not stated) | inactive: -10.8%
51 | Cc1ccc2nc3sc(C(=O)Nc4ccc(F)cc4)cc3cc2c1 | inactive: -8.09%
52 | COCCn1c(C)cc(O)c(C(c2ccc(OC)cc2)N2CCCCC2)c1=O (configuration not stated) | inactive: -4.73%
53 | CC1CN(C(=O)Nc2ccc(C(=O)NCCc3ccc(Cl)cc3)cc2)c2ccccc2S1 (configuration not stated) | inactive: -2.22%
54 | CCOc1ccc(NCc2cccn2-c2nnc(N3CCC(C(=O)NCCc4ccc(OCC)c(OCC)c4)CC3)s2)cc1 | inactive: -0.666%
55 | CCCN1Cc2cccc(C(=O)Nc3ccccc3F)c2C1=O | inactive: -12%
56 | CCCC(=O)Nc1ccc2nc(SCCOc3ccccc3)sc2c1 | inactive: -14.9%
57 | Cn1c(C(=O)NCCc2ccccc2)cc2cc(S(=O)(=O)N3CCCCC3)ccc21 | inactive: -10.5%
58 | Cc1cccc(NC(=O)C(=O)NCC(c2cccnc2)N2CCN(Cc3ccccc3)CC2)c1 (configuration not stated) | inactive: -20.7%
59 | Cc1ccccc1NC(=O)CSCn1nnc2c(=O)[nH]c(Cc3ccc(F)cc3)nc21 | inactive: -8.16%
60 | CC(=O)Oc1cccc2c1C(=O)c1c(OC(C)=O)cc(C(=O)O)cc1C2=O | inactive: -9.3%
61 | COc1ccccc1C(=O)Nc1nnc(S(=O)(=O)N2CCCCC2)s1 | inactive: -11.7%
62 | CCOC(=O)c1c(Nc2ccc(OCC)cc2)nnc(-c2ccccc2)c1-c1ccccc1 | inactive: -33.7%
